Test results taken from US10299477B2 (priority 2015, dated 2019).
Read-outs that look alike come from different tables or passages of the source.

Legend:
[1] = system: Colletotrichum orbiculare; details: 250 ppm spray (2.5 ml/pot), preventive; 6-10 days after inoculation; control value class
Phytophthora infestans = assay type: in vivo; details: for Test F control value (late blight on tomato): 250 ppm spray (2.5 ml/pot), preventive, control value class; for Test F (control value class): 250 ppm spray; for Test F control value: 250 ppm sprayed before inoculation
Magnaporthe grisea = assay type: in vivo; details: for Test A control value (blast on rice): preventive, control value class
[2] = late blight on tomato, Phytophthora infestans, 5-10 days after inoculation
[3] = rice blast, Magnaporthe grisea, 250 ppm spray
[4] = Late blight on tomato, 5-10 days after inoculation

Compound	Test H control value (anthracnose on cucumber) [1]	Test F control value (late blight on tomato) (Phytophthora infestans; 5-10 days after inoculation)	Test A control value (blast on rice) (Magnaporthe grisea; 250 ppm spray)	also measured
CCn1c(-c2c(F)cccc2F)c(-c2cccc(Cl)c2Cl)cc(Cl)c1=O [Compound 350]	L (L shows 50% or less of control values)	L (L shows 50% or less of control values)	H (H shows more than 50% of control values)	–
CCn1c(-c2c(F)cccc2F)c(-c2ccc(OC)cc2)cc(Cl)c1=O [Compound 302]	H (H shows more than 50% of control values)	L (L shows 50% or less of control values)	H (H shows more than 50% of control values)	–
C=CCOc1ccc(Cl)c(-c2ccc(=O)n(CC)c2-c2c(F)cccc2F)c1 [Compound 313]	H (H shows more than 50% of control values)	L (L shows 50% or less of control values)	H (H shows more than 50% of control values)	–
CSCOc1ccc(Cl)c(-c2ccc(=O)n(C)c2-c2c(F)cccc2F)c1 [Compound 306]	H (H shows more than 50% of control values)	L (L shows 50% or less of control values)	H (H shows more than 50% of control values)	–
COc1cc(OC)cc(C2=C(c3ccccc3F)N(C)C(=O)CC2)c1 [Compound 226]	H (H shows more than 50% of control values)	H (H shows more than 50% of control values)	H (H shows more than 50% of control values)	–
CCn1c(-c2c(F)cc(Br)cc2F)c(-c2cc(OC)cc(OC)c2Cl)ccc1=O [Compound 201]	H (H shows more than 50% of control values)	H (H shows more than 50% of control values)	H (H shows more than 50% of control values)	–
CCn1c(-c2c(F)cccc2F)c(-c2cc(OCC3CCCC3)ccc2Cl)ccc1=O [Compound 323]	L (L shows 50% or less of control values)	L (L shows 50% or less of control values)	H (H shows more than 50% of control values)	–
CCN1C(=O)CCC(c2cc(F)ccc2Cl)=C1c1c(F)cccc1F [Compound 356]	H (H shows more than 50% of control values)	H (H shows more than 50% of control values)	H (H shows more than 50% of control values)	–
Cn1c(-c2c(F)cccc2F)c(-c2cc(OCOCC[Si](C)(C)C)ccc2Cl)ccc1=O [Compound 246]	L (L shows 50% or less of control values)	L (L shows 50% or less of control values)	L (L shows 50% or less of control values)	–
CCn1c(-c2c(F)cccc2F)c(-c2c(F)c(F)c(F)c(F)c2F)ccc1=O [Compound 368]	H (H shows more than 50% of control values)	L (L shows 50% or less of control values)	H (H shows more than 50% of control values)	–
CCn1c(-c2c(F)cccc2F)c(-c2cccc(C(F)(F)F)c2)ccc1=O [Compound 284]	L (L shows 50% or less of control values)	L (L shows 50% or less of control values)	L (L shows 50% or less of control values)	–
COc1cc(OC)cc(-c2ccc(=O)n(C)c2-c2c(F)cc(Br)cc2F)c1 [Compound 203]	H (H shows more than 50% of control values)	L (L shows 50% or less of control values)	H (H shows more than 50% of control values)	–
Cn1c(-c2c(F)cccc2F)c(-c2cc(OCCC3OCCCO3)ccc2Cl)ccc1=O [Compound 318]	L (L shows 50% or less of control values)	L (L shows 50% or less of control values)	H (H shows more than 50% of control values)	–
CCn1c(-c2c(F)cncc2F)c(-c2cc(OC)cc(OC)c2Cl)ccc1=O [Compound 224]	H (H shows more than 50% of control values)	H (H shows more than 50% of control values)	H (H shows more than 50% of control values)	–
Cn1c(-c2c(F)cccc2F)c(-c2ccc(Cl)cc2)cc(Cl)c1=O [Compound 285]	H (H shows more than 50% of control values)	–	H (H shows more than 50% of control values)	–
O=c1ccc(-c2c(F)cccc2Cl)c(-c2c(F)cccc2F)n1CC(F)F [Compound 406]	–	–	–	Test F (control value class) (Phytophthora infestans; [2]): L (L shows 50% or less of control values); Test A (control value class) (Magnaporthe grisea; [3]): H (H shows more than 50% of control values)

Compound	Test H control value (anthracnose on cucumber) [1]	Test F control value (late blight on tomato) (Phytophthora infestans; 5-10 days after inoculation)	Test A control value (blast on rice) (Magnaporthe grisea; 250 ppm spray)	also measured
Cn1c(-c2c(F)cccc2F)c(-c2cc(F)ccc2F)cc(Br)c1=O [Compound 485]	–	–	–	Test F (control value class) (Phytophthora infestans; [2]): H (H shows more than 50% of control values); Test A (control value class) (Magnaporthe grisea; [3]): H (H shows more than 50% of control values)
Cn1c(-c2c(F)cc(F)cc2F)c(-c2cc(F)cc(F)c2F)ccc1=O [Compound 466]	–	–	–	Test F (control value class) (Phytophthora infestans; [2]): L (L shows 50% or less of control values); Test A (control value class) (Magnaporthe grisea; [3]): H (H shows more than 50% of control values)
CCn1c(-c2c(F)cc(OC)cc2F)c(-c2cc(F)ccc2F)ccc1=O [Compound 468]	–	–	–	Test F (control value class) (Phytophthora infestans; [2]): H (H shows more than 50% of control values); Test A (control value class) (Magnaporthe grisea; [3]): H (H shows more than 50% of control values)
Cn1c(-c2c(F)cccc2F)c(-c2cc(F)cc(F)c2F)cc(Br)c1=O [Compound 443]	–	–	–	Test F (control value class) (Phytophthora infestans; [2]): L (L shows 50% or less of control values); Test A (control value class) (Magnaporthe grisea; [3]): H (H shows more than 50% of control values)
CCn1c(-c2c(F)cccc2F)c(-c2cc(OC)ccc2Cl)cc(F)c1=O [Compound 533]	–	–	–	Test F (control value class) (Phytophthora infestans; [2]): L (L shows 50% or less of control values); Test A (control value class) (Magnaporthe grisea; [3]): H (H shows more than 50% of control values)
COc1cc(F)c(-c2c(-c3ccccc3F)cc(Br)c(=O)n2C)c(F)c1 [Compound 572]	–	–	–	Test F (control value class, late blight on tomato) (Phytophthora infestans; 250 ppm, sprayed 2.5 ml/pot before inoculation, evaluated 5-10 days after inoculation): L (L shows 50% or less of control values); Test A (control value class, blast on rice) (Magnaporthe grisea; in vivo): H (H shows more than 50% of control values)
CCn1c(-c2c(F)cccc2Cl)c(-c2cc(OC)cc(OC)c2Cl)ccc1=O [Compound 152]	–	–	–	Test F control value (Phytophthora infestans; [4]): L (L shows 50% or less of control values); Test A control value (Magnaporthe grisea; Blast on rice): H (H shows more than 50% of control values)
CCn1c(-c2c(F)cccc2Cl)c(-c2c(Cl)c(OC)cc(OC)c2Cl)cc(Cl)c1=O [Compound 167]	–	–	–	Test F control value (Phytophthora infestans; [4]): L (L shows 50% or less of control values); Test A control value (Magnaporthe grisea; Blast on rice): H (H shows more than 50% of control values)
CCN1C(=O)CCC(c2cc(OC)cc(OC)c2)=C1c1c(F)cccc1Cl [Compound 149]	–	–	–	Test F control value (Phytophthora infestans; [4]): L (L shows 50% or less of control values); Test A control value (Magnaporthe grisea; Blast on rice): H (H shows more than 50% of control values)
CCn1c(-c2c(F)cccc2F)c(-c2cc(OCOC)ccc2Cl)ccc1=O [Compound 97, 5-(2-chloro-5-(methoxymethoxy)phenyl)-6-(2,6-difluorophenyl)-1-ethylpyridine-2(1H)-one]	–	–	–	Test F control value (Phytophthora infestans; [4]): L (L shows 50% or less of control values); Test A control value (Magnaporthe grisea; Blast on rice): H (H shows more than 50% of control values)
CCOc1cccc(-c2cc(Cl)c(=O)n(CC)c2-c2c(F)cc(F)cc2F)c1Cl [Compound 809]	–	–	–	Test F (control value class) (Phytophthora infestans; Late blight on tomato, 2.5 ml/pot, evaluated 5-10 days after inoculation): L (L shows 50% or less of control values); Test A (control value class) (Magnaporthe grisea; Blast on rice, control value=100{1-(n/3)}): H (H shows more than 50% of control values)
CCn1c(-c2c(F)cccc2F)c(-c2ccccc2C(F)(F)F)ccc1=O [Compound 146]	–	–	–	Test F control value (Phytophthora infestans; [4]): L (L shows 50% or less of control values); Test A control value (Magnaporthe grisea; Blast on rice): H (H shows more than 50% of control values)
Cn1c(-c2c(F)cccc2F)c(-c2cc(F)ccc2Cl)cc(F)c1=O [Compound 513]	–	–	–	Test F (control value class) (Phytophthora infestans; [2]): L (L shows 50% or less of control values); Test A (control value class) (Magnaporthe grisea; [3]): H (H shows more than 50% of control values)
CCn1c(-c2c(F)cccc2F)c(-c2cc(OC)cc(OC)c2Cl)ccc1=O [Compound 32]	–	–	–	Test F control value (Phytophthora infestans; [4]): H (H shows more than 50% of control values); Test A control value (Magnaporthe grisea; Blast on rice): H (H shows more than 50% of control values)
COc1ccc(Cl)c(-c2cc(Cl)c(=O)n(C)c2-c2c(F)cc(F)cc2F)c1 [Compound 416]	–	–	–	Test F (control value class) (Phytophthora infestans; [2]): L (L shows 50% or less of control values); Test A (control value class) (Magnaporthe grisea; [3]): H (H shows more than 50% of control values)
